Measured values: article PMC4242493
The other results are listed elsewhere or left out. The list includes weakly bound sequences.

Each sequence was assayed against MaxL homodimer (UniProt P61244) (assay: universal protein-binding microarray (PBM)). Conditions: PBS-based mixture, 10 nM His-tagged protein dimer, 2% milk, 200 ng/uL BSA, 50 ng/uL salmon testes DNA, 0.02% TX-100; detection with Alexa 488 anti-His …; high values mean tight binding; most listed sequences are background and not binding sites; double strand, one strand shown.
Chain of UniProt P61244 (P61244 whole entry): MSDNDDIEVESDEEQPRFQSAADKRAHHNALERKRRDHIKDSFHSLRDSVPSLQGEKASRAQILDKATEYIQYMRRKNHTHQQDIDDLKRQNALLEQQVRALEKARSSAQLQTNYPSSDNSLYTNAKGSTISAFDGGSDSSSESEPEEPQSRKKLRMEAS

Sequence	binding signal (normalized occupancy)
GGCGCTCA	0.0725
TTAATCAA	0.0765
ACCTGACG	0.0743
GATTAGGC	0.073
TACAAAGA	0.0763
AAGGGGAG	0.0717
AGATCGGC	0.0695
CATTAGGG	0.0803
CAGACAGA	0.0748
TCATGCGA	0.0877
AAAAGCAC	0.0792
CGGCTAAA	0.0733
GGCGTCCC	0.0654
CCTCGGCC	0.0694
ATGGCTCC	0.0818
ACCTGATC	0.085
ATCTAAGG	0.0748
ATTAAAGC	0.0749
TCGTCGCA	0.0708
CCATGGAC	0.0837
AATCCTGG	0.07
AACACTTG	0.0757
ACTGGTCT	0.071
GAATTGGC	0.0709
AGGTATAA	0.081

Sequence	binding signal (normalized occupancy)
GACAGACA	0.0741
GAGTAACA	0.0759
TCCAGAGA	0.0702
CCATATAG	0.087
CGGAACCG	0.0666
ATAACCTA	0.0779
GCCAAGAC	0.0722
CTGTGACA	0.0778
ATGTATGA	0.0896
AATGTGGT	0.0943
ACGAGAAT	0.0823
ACGTGCCT	0.0959
AAAGTCTG	0.0692
CGATTCCC	0.0757
TAGGGTGA	0.076
ATTATTTG	0.0793
CCCCTAGG	0.0698
CTGTAGCA	0.0765
CGGTTGGC	0.0737
CCATCAAG	0.0744
CCCCAACG	0.0741
AAGTGATG	0.0756
CAGACAAA	0.0757
ATCTGACG	0.0758
AAGCAATC	0.0752

Sequence	binding signal (normalized occupancy)
CTTCTCGA	0.0732
ACTCCGTG	0.0724
CATGCGGA	0.126
CCCCTCGG	0.0692
ATGGTTAG	0.0784
AATGTAAT	0.0765
CTTTAACC	0.0757
CCATATTC	0.085
TACTTCAA	0.0827
CGCCTTAA	0.0761
ACGAGTTA	0.0814
ACAGGAGC	0.0731
GGGCAAAC	0.0702
CCAGTAAA	0.0769
AATGTACG	0.0761
TTAAATAA	0.0725
ACTGAGCC	0.0708
CCGTTCGA	0.0695
AGGATCGG	0.0726
CGAGCACC	0.0724
ACAGTAAG	0.0785
CGTACTTC	0.0758
CATATGGG	0.103
CAGGTTCG	0.0717
CCACACGA	0.0959

Sequence	binding signal (normalized occupancy)
CTATGGAC	0.0754
GGATACCC	0.0788
CGGGATTA	0.0803
CTTCGCTC	0.0654
CGGATAAC	0.0734
AGGAGCAT	0.0811
CGGTTTAC	0.0706
GAGATCGC	0.0757
CCAAATGA	0.084
AAGGCCGA	0.0677
ATTTTCAC	0.0778
CTAACTTC	0.0674
ACTATGGC	0.0742
CACCTGCC	0.0849
CAACTCTC	0.0734
AGTCATTC	0.077
ACTTCGCA	0.0712
GTACCTAA	0.0754
AATTTTGT	0.0774
CCCTTGGA	0.0711
ACCTCTCT	0.0709
AACTACGT	0.0709
CGGACGGC	0.0679
ATTCAAGG	0.0807
CCTTCCCG	0.0723

Sequence	binding signal (normalized occupancy)
GCCGCACA	0.0809
GTTTATCA	0.0816
CAGAGATG	0.0757
AGTTATGA	0.0764
AACTGCAT	0.0812
ACGCTTAT	0.0836
ACCATTAT	0.0776
CCCATGCA	0.0973
GAAAGTGC	0.0697
GTACTTTA	0.0737
ACGACGCA	0.0777
GAACAGGA	0.0687
ACGCAATG	0.0807
CGCCCGTA	0.0686
ATTGCCCG	0.0725
GCCACAGA	0.074
GAATTGAA	0.0748
CCCACTAG	0.0799
AAGTCAAT	0.0734
GCTGCGAC	0.0673
TGGAGTAA	0.0759
ACTAGGGG	0.0739
TCACTAGA	0.0761
CGGCCGAA	0.0638
AGTGACTC	0.0781

Sequence	binding signal (normalized occupancy)
CAATCTGG	0.0721
CTGGTGTC	0.0735
GGCAAAAA	0.0715
GGTGCGGA	0.0762
CTAGCACA	0.0827
CCTACTTC	0.0742
TGTCTGAA	0.0757
TAGCCGCA	0.0715
CACTCCAA	0.0714
AGCAGCCG	0.0667
GACGCTAC	0.0742
AATTGAAA	0.0772
ATGCGTAG	0.0832
GAAACTAA	0.0734
CATGTTCA	0.0945
AATTAGAC	0.0741
CACCCGAC	0.0792
AACGTCGT	0.0757
AGCCAACC	0.0796
ATGTTCTG	0.0788
CGTGGCTC	0.0897
ACGGCAAT	0.0756
ACATGTAC	0.0958
CTACGACC	0.0759
GCCATTTA	0.0786

Sequence	binding signal (normalized occupancy)
ATCTAAAT	0.0782
GAAAGAAC	0.072
GTTAGCTA	0.0688
AAGTAAAG	0.0722
ACAACCCG	0.0778
ACACACCG	0.0873
ATGTTTCC	0.0815
GTGCAATA	0.0814
ATAAAGTA	0.0811
CCCTGATA	0.0785
ACGGATTG	0.0707
AGATACCA	0.0785
ATTATAAC	0.0853
GAAGGCGA	0.0722
ACGCGCAC	0.0905
CCGAGAAC	0.072
AGTCTTTA	0.0693
CAACTTAC	0.0722
TCCACGCA	0.0885
AAACTATC	0.0729
CTTGTTAA	0.0714
CCCAGTCC	0.0735
GAATATGC	0.0796
GTGAAATA	0.0831
ATCAAGCC	0.0768

Sequence	binding signal (normalized occupancy)
AGCGTCTA	0.074
CAACTGAC	0.0728
ACGTACCC	0.0848
CCCTAGGG	0.0737
GCCCCAGA	0.0694
AAAATGGA	0.077
CTCCTGCC	0.0678
AGTTAAAC	0.0711
GACAAAAC	0.0749
CTCAGAAA	0.0748
AGACGGGC	0.0682
AGCGCAGC	0.0625
CACTTAGG	0.0772
AGAATAGC	0.0772
CACGCCTA	0.0938
ACGTGCCC	0.0948
CCGTGTTC	0.0725
GAAGACCC	0.0707
AGCACTAA	0.0729
CCGTTTCG	0.0661
GGGTTAGA	0.084
CCGATCAC	0.0768
CTTCAGTA	0.0695
ATACGCTC	0.0788
CCAAGCCG	0.074

Sequence	binding signal (normalized occupancy)
GGCGCCTA	0.07
GCCCGGGA	0.0647
AGGCGTAG	0.0687
AGAGCTCA	0.0694
CGAAGGGC	0.0673
CGACTACG	0.0719
CCTGGATC	0.0772
CTCCCGCC	0.0726
GAATATCC	0.0768
AAGTCATT	0.0758
TGTCAACA	0.0819
GAAGCTAC	0.0686
GTTGCCCA	0.0762
AGGGACGG	0.0686
GCTGTACA	0.0814
ACGGTCGG	0.0723
CTCACATA	0.0818
CTGACCGA	0.0725
ATTCGCTC	0.0757
CCCCTTAA	0.0759
CTGGACAC	0.0759
TATAGCCA	0.0847
ATGAATCG	0.0836
AAGACGTA	0.074
CTCATCTC	0.0785

Sequence	binding signal (normalized occupancy)
GATAGATC	0.0736
CGTCTAGA	0.0685
CGTCATCC	0.0813
GATATGAC	0.0791
AATTGTAG	0.0748
CATGTTCG	0.0882
AGCTCCAG	0.0712
TATGTGGA	0.0827
ATTGAGCA	0.0777
GGACTTAA	0.0725
GATCGCAC	0.0824
CACGGTTA	0.0759
GCGCGCAA	0.0753
TAATAGCA	0.0774
ACTTCTTG	0.0738
ATGCGTAA	0.0848
ACTTTGAA	0.0759
CTCGTGCA	0.1
TGTGCAAA	0.0811
ACTTGAAC	0.0734
ATTCTCGA	0.0808
AATATAGG	0.0788
CCGCGAGG	0.0805
CAGATCGG	0.0727
GGGCCGTA	0.0752

Sequence	binding signal (normalized occupancy)
AGAGTTGC	0.0698
CAGCTTGC	0.0704
CCGATCCC	0.0702
GCCACCAC	0.0787
CAGTGACA	0.0739
AGATGTAT	0.0832
ACTCGTGC	0.0933
ATTGATGG	0.0832
AAAGCGGG	0.066
GTGTTAAA	0.0743
ACCGAAAT	0.0733
CACTAACC	0.0743
CTGCGCAA	0.0706
CGCGAAGA	0.0698
GACCTGGA	0.0693
CGGCGGGC	0.0663
AACCTAAG	0.075
TGTGCTAA	0.0728
CACTCTCC	0.075
CCAGTTTA	0.0753
CGTTTGGA	0.0746
ACCGGGCT	0.071
AATTAGGC	0.0725
ACTTGATA	0.0813
CAAGTGAA	0.0702

Sequence	binding signal (normalized occupancy)
AGGGCTAA	0.0698
AAGCGGAT	0.0709
AACGCATC	0.0731
AACAATAA	0.0729
CGGTTATA	0.0807
TATTCGAA	0.0795
AGCGGTGA	0.0677
GGCGGGAC	0.0729
CTTGATAA	0.0791
AGGGAAAG	0.0756
AGTCCCCA	0.0807
CGCCGCCG	0.0677
CCGCTCCA	0.0719
CCAACAAG	0.0776
GTGAGCTA	0.0825
GCCACGGA	0.0706
CCATATTA	0.0852
ATAGCCTG	0.0748
CACGCGCA	0.135
ACCTTACG	0.0715
CGCATCTA	0.0801
TAAAGTGA	0.0797
CATATCGC	0.0767
AGTGGCAA	0.0713
ACGATAAA	0.0783

Sequence	binding signal (normalized occupancy)
TATATACA	0.0825
TAGTTCGA	0.0719
GTATTAAC	0.077
CACAAGCC	0.0772
AAACCGTG	0.0731
CCTCTCTA	0.0738
CCTGGTAC	0.0716
TCATAGCA	0.0811
CCAACTCG	0.0708
CCATTTCG	0.0676
AGAATATC	0.0765
AATTTTAT	0.0731
AATGCACA	0.0785
ACTCTGTC	0.0717
GCGGCCCA	0.0704
ATGACCCG	0.081
TGAAATCA	0.0708
CTAGAGAC	0.0745
CAGCTGTA	0.0716
GCTCAGCA	0.0748
CTCGGACC	0.0663
AGAACTTA	0.0682
AGTTGTTA	0.0725
ATTTACTA	0.0719
AATACAGT	0.077

Sequence	binding signal (normalized occupancy)
AAGACTAG	0.0711
CGATAAAA	0.0743
AGCGGCAT	0.0766
ACCATTCT	0.0753
GACCCATA	0.0822
AAAGGAGG	0.0697
AAGAAATA	0.0748
GCTGGCCC	0.0684
GAAACGTA	0.0744
GGGGGGTA	0.0894
GTGCCAAC	0.0765
AGCGCAGG	0.0685
ATGAGGGG	0.0902
GAATGGTA	0.08
ACTTATAG	0.0808
GCCTTTAC	0.0804
GCTGTCAA	0.0731
AGGATCTG	0.0765
CTCCGGGC	0.0682
